About 50,000 (12%) of roughly 420,000 compounds were called active. The shares of active, inactive and inconclusive entries below differ from those in the screen. Calls follow the shape of the dose curve; as a rule, active = well fitted inhibition curve with a large enough effect; inconclusive = small, poorly fitted or top-dose-only effect; inactive = flat fitted curve, though single readings scatter. No potency is given beside an inconclusive call; the fits are too rough.
Assay: qHTS for Inhibitors of human tyrosyl-DNA phosphodiesterase 1 (TDP1): qHTS in cells in presence of CPT; also: nearly all actives have a fitted effect of over 55% in size
Conditions: chicken DT40 Tdp1-/-;hTDP1 cells + 20 nM CPT, ATP luminescence, 48 h; activity change, negative = growth inhibition: at 46.2 µM (top of the series)
How it was run: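 Cell growth measured by CellTiter-Glo luminescence after a minimum 48 h, 37 C compound exposure with 20 nM CPT in Tdp1-knockout DT40 cells stably expressing hTDP1, seeded 400/well; qHTS titration format.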
% is scaled to controls: 0 for no effect and ±100 for the full control effect; potency is read from the fitted curve at half-maximal effect; tags tell the direction and shape of the fitted curve.

Row | SMILES | activity change, negative = growth inhibition | Potency
1 | CCCOC(=O)c1ccc(NC(=O)Cc2csc(C)n2)cc1 | inactive: -37.2% | 
2 | Cc1ccc(SCC(=O)Nc2ccc3c(c2)C(=O)N(C)C3=O)cc1 | inactive: 9.4% | 
3 | COc1ccccc1NC(=O)Nc1nn(C)c2cccc(OC)c12 | inactive: 14.6% | 
4 | CS(=O)(=O)N1CC(C(=O)NC2CCCC2)Oc2ccc(Cl)cc21 (configuration not stated) |  | inconclusive [inhibitor, single point]
5 | Cc1cc2c(cc1S(=O)(=O)N1CCN(c3ccc(Cl)cc3)CC1)OCCN2C |  | inconclusive [inhibitor, single point]
6 | CCOc1cc(N2CCOCC2)c(OCC)cc1NC(=O)COC(=O)c1cc2ccccc2cc1O |  | inconclusive [inhibitor, single point]
7 | COc1cc(CNCCSc2nnnn2C)cc(Br)c1OCc1ccccc1 |  | inconclusive [inhibitor, single point]
8 | CCOC(=O)c1ccccc1Oc1c(F)c(F)nc(NCCO)c1F | inconclusive: -32.3% [inhibitor] | 
9 | Cc1ccsc1C(=O)NCC(c1cccs1)N1CCOCC1 (configuration not stated) |  | inconclusive [inhibitor, single point]
10 | Clc1ccc(N/N=C/c2ccncc2)cc1Cl | inactive: -21.6% | 
11 | CCOC(=O)c1cc2c(c(CCO)n1)[C@H](CCO)N(S(=O)C(C)(C)C)C2 (some centres not stated) | inactive: -9.2% | 
12 | Cn1cnnc1SCC(=O)c1c(N)n(Cc2ccccc2)c(=O)n(C)c1=O | inactive: 2.56% | 
13 | CC(C)CNC(=O)COC(=O)c1c2c(nc3ccccc13)/C(=C\c1cccs1)CC2 |  | inconclusive [inhibitor, single point]
14 | Cc1ccc(CNC(=O)N2CCN(S(=O)(=O)c3ccccc3)CC2)cc1 | inactive: 7.13% | 
15 | COc1ccc(NC(=O)CN(c2ccccc2OC)S(=O)(=O)c2cccs2)cc1Cl |  | inconclusive [inhibitor, single point]
16 | COc1ccc(C(C)=O)cc1COC(=O)c1cc(=O)c2ccccc2o1 | inactive: 7.53% | 
17 | COc1ccccc1Sc1nc(-c2ccccc2)ncc1OC |  | inconclusive [inhibitor, partial curve]
18 | C/C(=N\Nc1ccc(F)cc1F)c1ccc(N2CCOCC2)cc1 |  | inconclusive [inhibitor, single point]
19 | Cc1ccc(NC2=CC(=O)CC(c3ccc(Cl)cc3)C2)cc1 (configuration not stated) |  | inconclusive [inhibitor, single point]
20 | O=C1OCCC1Sc1ncnc2sc3c(c12)CCC3 (configuration not stated) | inactive: -22.9% | 
21 | Cc1cccc(C)c1NC(=S)N=Nc1c(O)n(C)c2ccc(S(=O)(=O)N3CCOCC3)cc12 |  | active: 2.59 µM
22 | CSc1nc2sc3c(c2c(=O)n1-c1ccccc1C)CCCC3 |  | active: 23.1 µM
23 | COc1ccc(-c2cc(NC=O)c3ncc(-c4cccc(C(=O)N(C)C)c4)n3c2)cn1 |  | active: 23.1 µM
24 | Cc1cccc(N2CCN(C(=O)CN(C)S(=O)(=O)c3ccc4c(c3)CCC(=O)N4)CC2)c1C |  | inconclusive [inhibitor, single point]

Row | SMILES | activity change, negative = growth inhibition | Potency
25 | C=Cc1ccc(CSc2nc(-c3ccccc3Cl)nc3c2Cc2c(CO)cnc(C)c2O3)cc1 |  | inconclusive [inhibitor, single point]
26 | CC(=O)c1ccc(NC(=O)CSc2nc3[nH]c(=O)cc(O)c3s2)cc1 |  | inconclusive [inhibitor, single point]
27 | Cc1nc(N2CCCC2)c2c(C(=O)N3CCN(c4cccc(Cl)c4)CC3)c(C)oc2n1 |  | inconclusive [inhibitor, single point]
28 | O=C(NCc1cccc(C(F)(F)F)c1)C1CC(c2c(Cl)cccc2Cl)=NO1 (configuration not stated) |  | active: 16.4 µM
29 | CC1(C)CC(Cc2ccc(Cl)nc2)N(C(=O)OC(C)(C)C)C1 (configuration not stated) |  | inconclusive [inhibitor, single point]
30 | Cc1[nH]n(-c2ccc([N+](=O)[O-])cc2)c(=O)c1C=NCCN1CCN(C(=O)c2cccc(F)c2)CC1 |  | active: 14.6 µM
31 | CN1CCC(=NNC(=O)C(=O)Nc2cccc(Br)c2)CC1 |  | inconclusive [inhibitor, single point]
32 | O=C(C1=NOC2(C1)C(=O)Nc1ccccc12)N1CCOCC1 (configuration not stated) | inactive: -0.929% | 
33 | COc1ccc(NS(=O)(=O)c2cccc(C(=O)N(C)CC(=O)Nc3ccc(C)cc3)c2)cc1 | inactive: -8.59% | 
34 | CC(NC(=O)COC(=O)c1ccc2c(c1)OCCO2)c1ccccc1 (configuration not stated) | inactive: -2.78% | 
35 | CCN(c1ccccc1)c1nnc(NC(=O)Nc2cccc(Br)c2)s1 |  | inconclusive [inhibitor, single point]
36 | CC1(c2ccccc2)CC(C)(C)N2C(=O)Cc3cccc1c32 (configuration not stated) |  | inconclusive [inhibitor, single point]
37 | O=c1cnc2cnc(Nc3ccccc3)nc2n1C[C@H]1CCCO1 |  | active: 8.2 µM
38 | Cc1ccc(/C=N/NC(=O)c2ccc3c(c2)OCCO3)s1 |  | active: 20.6 µM
39 | COc1ccc(-c2nnn(CC(=O)c3ccccc3)n2)cc1OC |  | inconclusive [inhibitor, single point]
40 | O=C(Oc1ccccc1C(=S)N1CCCCC1)c1cc([N+](=O)[O-])cc([N+](=O)[O-])c1 |  | inconclusive [inhibitor, single point]
41 | Cc1cccc(OCC(=O)N(Cc2ccc(C)o2)C2CCS(=O)(=O)C2)c1 (configuration not stated) | inactive: 0.0124% | 
42 | CC1CN(S(=O)(=O)c2cccc(C(=O)OC/C(O)=C(\C#N)c3nc4ccccc4[nH]3)c2)CC(C)O1 (configuration not stated) |  | inconclusive [inhibitor, single point]
43 | C=CCn1c(SCC(=O)c2c(N)n(CCC)c(=O)n(C)c2=O)nnc1-c1ccncc1 | inactive: 5.97% | 
44 | C=CCN1C(=O)N(c2ccc(Cl)cc2)C(=O)C1CC(=O)Nc1ccc(F)cc1 (configuration not stated) |  | inconclusive [inhibitor, single point]
45 | CNC(=O)c1nnsc1S(=O)c1ccc(Cl)cc1 (configuration not stated) |  | active: 0.411 µM
46 | CC(=O)c1ccc(NC(=S)Nc2ccc(Br)c(Cl)c2)cc1 |  | inconclusive [inhibitor, single point]
47 | CCC(=O)N1CCc2cc(Br)cc(S(=O)(=O)N(C)c3ccc(OC)cc3OC)c21 |  | active: 18.4 µM

Source: PubChem BioAssay AID686979 (National Center for Advancing Translational Sciences (NCATS), 2013)
